# PubChem BioAssay (NCATS)
# The inconclusive results got no clear call from the source; some entries with a clear call stand among them for comparison. Potencies of inconclusive entries are left out as doubtful fits. Calls of active or inactive are those of the source. Calls follow the shape of the dose curve; as a rule, active = well fitted inhibition curve with a large enough effect; inconclusive = small, poorly fitted or top-dose-only effect; inactive = no such curve, though single readings can be large or run the other way.
# Assay: qHTS assay for measurement of the activity of small molecule inhibitors on Zika virus induced Caspase-3 activity in human iPSC derived neural progenitor cells (hNPCs) (AID 1224857); also: nearly all actives have a fitted effect of over 65% in size; as to activity change, negative = inhibition: % of control where 0% means no effect
# Settings: hNPCs ZIKV-induced caspase-3/7, Caspase-Glo luminescence, 6 h; series mostly up to 45.7 µM; activity change, negative = inhibition: at the top concentration
# Outline: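 Pretreat hNPCs with compound 1 h; infect ZIKV 2 FFU/cell; 6 h 37 C, 5% CO2; Caspase-Glo 3/7, 30 min RT; luminescence; normalize to no-virus and virus-only wells.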
# Potency is read from the fitted curve at half-maximal effect; tags tell the direction and shape of the fitted curve.
Structure (SMILES),"activity change, negative = inhibition",Potency
Cc1ccc(S(=O)(=O)NC(=O)NC2CCCCC2)cc1,inactive: -4.83%,–
NC(=O)C(=O)O,inactive: 6.72%,–
Cc1coc2ccccc2c1=O,inactive: -0.627%,–
CN(C)CCn1nnnc1SCC1=C(C(=O)O)N2C(=O)[C@@H](NC(=O)Cc3csc(N)n3)[C@H]2SC1,–,"inconclusive [inhibitor, single point]"
CCCCCCCCCCCC(=O)[O][Sn]([CH2]CCC)([CH2]CCC)[O]C(=O)CCCCCCCCCCC,–,"inconclusive [inhibitor, partial curve, poor fit]"
CC(C)(O)c1cc2nc(-c3cnc(N)nc3)nc(N3CCOCC3)c2s1,inactive: 37.4%,–
CC(=C(CCOC(=O)C(C)C)SSC(CCOC(=O)C(C)C)=C(C)N(C=O)Cc1cnc(C)nc1N)N(C=O)Cc1cnc(C)nc1N,–,active: 11.2 µM
COC(=O)C1=C(C)NC(C)=C(C(=O)OCC(C)=O)C1c1ccccc1[N+](=O)[O-] (configuration not stated),–,"inconclusive [inhibitor, single point]"
O=C(O)/C=C/c1ccc(O)c(O)c1,inactive: 1.83%,–
O=C(c1ccccc1)c1ccccc1,inactive: 4.82%,–
Cc1c(C)n(Cc2ccccc2)c2ccc(C(=O)OCCN(C)C)cc12,inactive: 1.53%,–
O=C(OCc1ccccc1)c1ccccc1,–,"inconclusive [inhibitor, full curve, poor fit]"
O=[N+]([O-])c1ccc2c(c1)S(=O)(=O)C=C2,–,"inconclusive [inhibitor, partial curve, poor fit]"
CC1CN(c2cc3c(cc2F)c(=O)c(C(=O)O)cn3-c2ccc(F)cc2F)CCN1 (configuration not stated),inactive: -6.17% [at 4.53 µM],–
CC(=O)OCC(=O)[C@@]1(O)CC[C@H]2[C@@H]3CCC4=CC(=O)C=C[C@]4(C)[C@H]3[C@@H](O)C[C@@]21C,inactive: -4.1%,–
COc1cc2c3cc1Oc1cc(ccc1O)C[C@@H]1c4c(cc(OC)c(O)c4Oc4ccc(cc4)C[C@@H]3N(C)CC2)CC[N+]1(C)C,–,"inconclusive [inhibitor, single point]"
CC(C)(C(=O)O)c1ccc(C(O)CCCN2CCC(C(O)(c3ccccc3)c3ccccc3)CC2)cc1 (configuration not stated),–,"inconclusive [inhibitor, full curve, poor fit]"
N.N.O=C(O)C1(C(=O)O)CCC1.[Pt+2],–,"inconclusive [inhibitor, partial curve, poor fit]"
O=Cc1ccc(O)c(O)c1O,–,"inconclusive [inhibitor, partial curve, poor fit]"

Structure (SMILES),"activity change, negative = inhibition",Potency
c1ccc2sc(SN3CCOCC3)nc2c1,–,"inconclusive [inhibitor, partial curve, poor fit]"
CC(=O)NCCc1c[nH]c2ccc(O)cc12,inactive: 24.9%,–
CCc1nn(CCCN2CCN(c3cccc(Cl)c3)CC2)c(=O)n1CCOc1ccccc1,inactive: 11.4%,–
N#C/C(=C\c1ccc(O)c(O)c1)C(=O)c1ccc(O)c(O)c1,–,"inconclusive [inhibitor, single point]"
C[C@H](NC(=O)[C@@H](O)c1cc(F)cc(F)c1)C(=O)N[C@@H]1C(=O)N(C)c2ccccc2-c2ccccc21,inactive: -8.14%,–
CC(=O)Oc1cccc2c1C(=O)c1c(OC(C)=O)cc(C(=O)O)cc1C2=O,–,"inconclusive [inhibitor, partial curve, poor fit]"
CN1CCN(c2cc3c(nn2)Oc2ccccc2N3C)CC1,–,"inconclusive [inhibitor, single point]"
NC(CCCP(=O)(O)O)C(=O)O (configuration not stated),–,"inconclusive [inhibitor, single point]"
CC(C)OC(=O)c1cc(C(=O)OC(C)C)cc([N+](=O)[O-])c1,–,"inconclusive [inhibitor, single point]"
CCCCCCOc1ccccc1C(N)=O,–,"inconclusive [inhibitor, full curve, poor fit]"
CCCCCCCC(=O)[O-].CCCCCCCC(=O)[O-].[Zn+2],inactive: -6.36%,–
CN1CCC[C@@H]1Cc1c[nH]c2ccc(CCS(=O)(=O)c3ccccc3)cc12,–,inactive
O=C(/C=C/c1ccccc1)NCCO,–,"inconclusive [inhibitor, partial curve, poor fit]"
CCOc1ccc2nc(S(N)(=O)=O)sc2c1,–,"inconclusive [inhibitor, partial curve, poor fit]"
CCOC(=O)NNc1ccc(N(CC)CC(C)O)nn1 (configuration not stated),inactive: -5.27%,–
FC(F)(F)C(F)(F)C(F)(F)C(F)(F)C(F)(F)C(F)(F)C(F)(F)C(F)(F)Br,inactive: -9.15%,–
CCCCC(CC)CN1CN(CC(CC)CCCC)CC(C)(N)C1 (configuration not stated),inactive: -5.4%,–
Nc1ccc(C(=O)Oc2ccccc2)c(O)c1,inactive: -3.87%,–
